Measured values reported in patent publication US9505824B2, “Antigen peptide derived from the sequence of epidermal growth factor receptor having T790M point mutation” (Kanagawa Prefectural Hospital Organization, priority 2012, dated 2016).

Tests used:
[1] = tested on: NCI-H1975-A2 (HLA-A2+ T790M+)
[2] = tested on: NCI-H1975 (HLA-A2− T790M+)
[3] = tested on: NCI-H1975-A2 (HLA-A2+ T790M+); assay: Calcein cytotoxicity assay of T790M-A-specific CTL line; assay type: cell-based; conditions: Calcein labeling
Protocol: (§1) FIG. 11. Reactivity of T790M-A-specific CTL line against NSCLC cell lines having the EGFR T790M mutation (3).
(§2) Cytotoxicity of peptide-specific CTLs was examined by an assay with Calcein labeling. Target cells (NCI-H1975 or NCI-H1975-A2) were labeled with Calcein AM (Dojindo, Kumamoto, Japan). The target cells (1×10^4 cells) were co-cultured with effector cells at the following effector/target ratio for 4-6 hours in 96-well half plate (Corning, N.Y., USA). Cytotoxicity was determined with Terascan VPC system (Minerva Tech). The effector/target ratio was 3:1 or 10:1.

[4] = tested on: NCI-H1975 (HLA-A2− T790M+); assay: as above; assay type: cell-based; conditions: Calcein labeling; HLA-A2-negative cells
Protocol: as §1, §2

| Compound | cytotoxicity of peptide-stimulated PBMCs against NCI-H1975-A2 [1] | cytotoxicity of peptide-stimulated PBMCs against NCI-H1975 [2] | cytotoxicity of T790M-A-specific CTL line against NCI-H1975-A2 [3] | cytotoxicity of T790M-A-specific CTL line against NCI-H1975 [4] |
| --- | --- | --- | --- | --- |
| CSCC[C@H](NC(=O)[C@H](CC(C)C)NC(=O)[C@H](CCC(N)=O)NC(=O)[C@@H](N)CCSC)C(=O)N1CCC[C@H]1C(=O)N[C@@H](Cc1ccccc1)C(=O)NCC(=O)N[C@@H](CS)C(=O)N[C@@H](CC(C)C)C(=O)N[C@@H](CC(C)C)C(=O)O [Peptide T790M-5, MQLMPFGCLL] | substantial cytotoxicity | not against HLA-A2-negative NCI-H1975 cells |  |  |
| IMQLMPFGC [Peptide T790M-A, IMQLMPFGC] |  |  | showed cytotoxicity against NCI-H1975-A2 | not against HLA-A2-negative NCI-H1975 cells |
| CC[C@H](C)[C@H](NC(=O)[C@@H](N)CC(C)C)C(=O)N[C@@H](CCSC)C(=O)N[C@@H](CCC(N)=O)C(=O)N[C@@H](CC(C)C)C(=O)N[C@@H](CCSC)C(=O)N1CCC[C@H]1C(=O)N[C@@H](Cc1ccccc1)C(=O)NCC(=O)N[C@@H](CS)C(=O)N[C@@H](CC(C)C)C(=O)O [Peptide T790M-7, LIMQLMPFGCL] | substantial cytotoxicity | not against HLA-A2-negative NCI-H1975 cells |  |  |

No end group written: not given here.
